In all, about 50,000 compounds went through this assay and about 800 (1.6%) showed an effect of 50% or more. This is one part of the list.

For the assay, the target named is Bcl-2-like protein 10 (Homo sapiens) (UniProt Q9HD36). The experiment in a line: TR3 peptide-Bcl-B binding displacers, biochemical primary FP assay, phenotype converters (AID 1240).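 Also: 0% = Bcl-B with tracer peptide and DMSO and 100% = tracer peptide lacking Bcl-B.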 The settings on record: GST-Bcl-B / FITC-TR3 peptide fluorescence polarization; stronger effect = higher value; compound at 3.75 mg/L.
Sequence of UniProt Q9HD36 (Q9HD36 whole entry, looked up): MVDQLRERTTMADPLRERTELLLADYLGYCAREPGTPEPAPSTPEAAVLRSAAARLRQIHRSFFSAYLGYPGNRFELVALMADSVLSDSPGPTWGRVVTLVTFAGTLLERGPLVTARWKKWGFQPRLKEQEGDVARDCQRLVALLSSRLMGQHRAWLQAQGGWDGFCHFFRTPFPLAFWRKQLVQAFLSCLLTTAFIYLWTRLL
Regarding `CC(=O)N/N=C/c1cccc(C(F)(F)F)c1`, the displacement is 3.2%.
In the case of `COCCNC(=O)C(=O)Nc1ccccc1F`, the displacement was -11.9%.
As for `COc1ccccc1-n1cnc2cc(NC(C)=O)ccc21`, the displacement amounted to 14.7%.
As for `CSc1ccccc1NC(=O)CSc1nc2ccccc2o1`, the displacement was found to be 18.9%.
Consider `CCOC(=O)c1c(NC(=O)COc2cc(C)ccc2C(C)C)sc(C(C)=O)c1C`, for which the displacement was 3.6%.
Turning to `Cc1ccc2c(Cl)c(C(=O)N3CCN(c4ccc(Cl)cc4)CC3)sc2c1`, the displacement was -8.9%.
`O=C(Nc1ccc2nn(-c3ccc(F)cc3)nc2c1)c1ccc(-c2ccc([N+](=O)[O-])cc2)o1`: the displacement is 8.2%.
Regarding `CCCCOCCNC(=O)c1ccc(I)cc1`, the displacement was -2.8%.
For `COc1ccc(Cl)cc1NC(=O)C1=C(C)NC(=O)NC1c1ccccc1Cl` (stereo unspecified), the displacement worked out at 8.5%.
Turning to `O=C(Nc1cccc(C(F)(F)F)c1)/C(=C\c1cccs1)NC(=O)c1cccs1`, the displacement is -3%.
For the compound `CCOc1ccc(/C=C/C(=O)c2ccc(F)cc2)cc1`, the displacement was -0.4%.
The same measure for `CCOc1ccc(/C=C2/SC(=O)N(CN3CCOCC3)C2=O)cc1`: 2.5%; for `COc1cc(NC(=O)c2cc(Cl)ccc2OC)ccc1NC(=O)c1ccco1`: -5.2%.
With `O=C(NCCN1CCOCC1)/C(=C/c1ccc(F)cc1)NC(=O)c1ccccc1` the figure was 6.7%; with `CCC(C(=O)Nc1cc(Cl)cc(Cl)c1)c1ccccc1` (stereo unspecified), -0.6%.
For `CCC(CC)C(=O)Nc1ccc(S(=O)(=O)Nc2cnc3ccccc3n2)cc1`, the displacement was -0.2%.
With `O=C(NCCCNc1ccc([N+](=O)[O-])cc1Cl)c1cccc(Br)c1` the figure was 17.3%; with `CC(C)(C)c1ccccc1NC(=O)C1CC(=O)N(c2ccc(Cl)cc2)C1` (stereo unspecified), -1.3%; with `O=C(c1ccccc1Br)N1CCc2ccccc2C1`, -10.3%.
Regarding `Cc1nc(C)c(-c2csc(Nc3ccc(O)cc3)n2)s1`, the displacement is 10%.
With `C/C(=N/NC(=O)CN(c1cccc(Cl)c1)S(=O)(=O)c1ccccc1)c1ccccc1O` the figure was -4.7%.
As for `Cc1ccc(CNC(=O)C(=O)N2CCCC2)cc1`, the displacement is -2.6%.
With `Oc1ccc(C=Nc2cc(Cl)ccc2O)cc1` the figure was 10%; with `O=C(Nc1nnc(COc2ccc(C3CCCCC3)cc2)s1)c1ccccc1`, 37.9%; with `CS(=O)(=O)N(CC(=O)N1CCCC1)c1cccc(Cl)c1`, -2.9%.
Turning to `O=C(NCCC1=CCCCC1)C(=O)Nc1ccccc1F`, the displacement was -11.5%.
With `COc1cc(NC(=O)COc2ccccc2)cc(OC)c1` the figure was -0.2%; with `CCN1C(=O)/C(=C\c2ccc(Br)cc2)SC1=S`, 7.1%.
Take `CC1=NN(c2ccc(S(N)(=O)=O)cc2)C(=O)/C1=C\c1ccc(-c2ccc(C)c(Cl)c2)o1`: the displacement turned out to be 4%.
As for `Cc1c(Cl)cccc1NC(=O)C(=O)NCCC(C)C`, the displacement came out at 7.4%.
With `Cc1cc(=O)oc2ccc(OCc3ccccc3)cc12` the figure was 3.1%.
With `COc1ccc([N+](=O)[O-])cc1NC(=O)Cc1ccc(Br)cc1` the figure was 1.9%; with `CC1C(c2ccccc2)=[N+]([O-])C(C)(c2ccc(Cl)cc2)N1O` (stereo unspecified), 8.5%.
The same measure for `CN(C)c1ccc(C(=S)N2CCOCC2)cc1Br`: 7.3%; for `Cc1ccc(S(=O)(=O)N2CCCc3ccccc32)cc1C`: 17.1%.
In the case of `O=C(Nc1ccc(O)cc1)c1cccc(F)c1`, the displacement worked out at 12.7%.
In the case of `C=CCN1C(=O)c2ccccc2C1(O)c1ccc(Cl)cc1` (stereo unspecified), the displacement is -8.4%.
For `COc1ccc(CNC(=O)COc2ccc(Cl)cc2C)cc1`, the displacement was -0.6%.
With `COc1c([N+](=O)[O-])cc2c(C)c(Br)c(=O)oc2c1OC`, the displacement is 15.4%.
As to `Brc1ccccc1CN1CCN(Cc2ccncc2)CC1`, the displacement is -2.2%.
Turning to `O=C(NCc1ccco1)c1nn2c(c1Br)NC(c1cccs1)CC2C(F)(F)F` (stereo unspecified), the displacement was determined as 2.4%.
As to `O=C(NNc1c(F)c(F)c(F)c(F)c1F)C(O)(c1ccccc1)c1ccccc1`, the displacement was -14.6%.
Turning to `CCc1ccc(NC(=O)c2cc3cc(Br)ccc3oc2=O)cc1`, the displacement was -0.3%.
For the compound `COc1cccc(CNc2ccc3c(c2)nc(C)n3C)c1OC`, the displacement came out at 3%.
As to `COc1cc(Cl)ccc1NC(=O)c1c(O)c2ccccc2n(CC(C)C)c1=O`, the displacement came to 13.8%.
Regarding `COc1ccc(OCC(=O)N2CCC(C(N)=O)CC2)cc1`, the displacement was found to be 0%.
As for `COc1cc(/C=C2\SC(=O)N(c3ccccc3)C2=O)ccc1O`, the displacement was determined as 10.5%.
The same measure for `CCOc1c(C=C2C(=O)NC(=S)NC2=O)cccc1OC`: 14.9%.
Regarding `O=[N+]([O-])c1cc(C(O)(C(F)(F)F)C(F)(F)F)cc([N+](=O)[O-])c1Cl`, the displacement was found to be 10.5%.
The same measure for `O=C(CC(NC(=O)c1ccccc1)c1ccccc1)OCC(=O)N1c2ccccc2Sc2ccccc21` (stereo unspecified): 2.3%; for `Cc1ccc(N2C(=O)CC(NCCc3cccc(F)c3)C2=O)cc1` (stereo unspecified): 0.3%.
With `CC(=O)C1=C(O)C(=O)N(CCN2CCNCC2)C1c1ccc(Cl)cc1` (stereo unspecified) the figure was -5.1%; with `O=C1N=C(N2CCOCC2)S/C1=C\c1ccoc1`, 12.2%; with `Cc1ccc(S(=O)(=O)N2CCN(c3ccc([N+](=O)[O-])c(NCc4ccccc4)c3)CC2)cc1`, 11.7%.
With `O=C1C2C3C=CC(C3)C2C(=O)N1c1cccc(-c2nc3ccccc3c(=O)o2)c1` (stereo unspecified) the figure was 12.6%; with `CCOC(=O)C1=CN(c2ccc(C)cc2)C=C(C(=O)OCC)C1c1cc(OC)c(OC)c(OC)c1`, -0.6%; with `Cc1ccc(S(=O)(=O)Oc2ccccc2C(=S)N2CCOCC2)cc1`, 6.8%.
On to `COc1cccc(/C=N/NC(=O)C(=O)NCc2ccccn2)c1O`, for which the displacement was -2.3%.
The same measure for `O=C(Oc1ccc(Br)cc1C(=S)N1CCOCC1)c1ccc(Cl)cc1`: 11.2%; for `CN(C)c1cccc(C(=O)Nc2cccc(Br)c2)c1`: 12.6%.
The same measure for `O=C(NCCCN1CCOCC1)C(=O)NCc1ccco1`: 9%; for `COC(=O)c1ccc(/C=N/NC(=O)c2n[nH]c3c2CCC3)cc1`: -8%.
With `Cc1ccc(-n2c(=O)c3c4c(sc3n3c(SCC(N)=O)nnc23)CCCC4)cc1` the figure was 38.5%; with `CCCNC(=O)OCC12COC(c3ccc4c(c3)OCO4)C(C(C)=CC1C)C2C` (stereo unspecified), 0.4%; with `Ic1ccc(-c2nc(-c3ccncc3)no2)cc1`, 1.6%.
In the case of `CCN(CC)c1ccc(/C=C2/SC(NC(C)=O)=NC2=O)cc1`, the displacement was determined as 61.1%.
With `CCCSc1nnc(-c2ccc(Cl)cc2Cl)o1` the figure was 11.4%; with `Cc1ccc(-c2nc3ccccc3o2)cc1NC(=O)c1ccc2c(c1)OCCO2`, 45.1%.
Regarding `CCOC(=O)C1=C(C)N=C2SCC(=O)N2C1c1ccc(O)cc1` (stereo unspecified), the displacement amounted to 4.6%.
Consider `COC(=O)c1cc(C(=O)N2CCCC(C)C2)cc([N+](=O)[O-])c1` (stereo unspecified), for which the displacement was -8.5%.
The same measure for `CCOC(=O)C1=C(C)N=c2s/c(=C\c3cc(OC)c(OC)cc3[N+](=O)[O-])c(=O)n2C1c1ccc(SC)cc1` (stereo unspecified): -10.2%.
